The results in this text go back to paper PMC12820563.

The list shows a part of the results. The list includes weakly bound sequences.

In the assay the target is T1, MBP-FoxP3dN (UniProt Q99JB6).
T1 sequence: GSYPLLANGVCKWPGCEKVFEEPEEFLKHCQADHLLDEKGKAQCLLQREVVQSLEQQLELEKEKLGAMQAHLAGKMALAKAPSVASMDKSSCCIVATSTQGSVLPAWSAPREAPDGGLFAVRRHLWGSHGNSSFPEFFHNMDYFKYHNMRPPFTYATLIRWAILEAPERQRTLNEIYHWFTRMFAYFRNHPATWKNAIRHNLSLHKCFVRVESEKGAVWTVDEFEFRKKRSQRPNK
As to the kind of experiment: PD-seq (MBP pull-down with sequencing). The following applies: 20 mM Tris-HCl pH 7.5, 100 mM NaCl, 1.5 mM MgCl2, 0.4 uM protein, 0.1 uM dsDNA library, 30 min, room temperature, amylose pull-down; high values mean tight binding; double strand, one strand shown.
In the case of “GATGATTGTTCTCCCAGCTGATGAATTATCATATTCGAGTAAACAAATTTTCCTAATCTTTCTGTTCAAGCGCCATCTAC”, the binding signal (RPM ratio (pull-down/input)) is 0.565.
Then “GATGATTGTTCTCCCAGCTGATGAATTTTAACCATCGAGTAAACAAATTTTCCTAATCTTTCTGTTCAAGCGCCATCTAC”, with 0.364; and “GATGATTGTTCTCCCAGCTGATGAATTATATCACTCGAGTAAACAAATTTTCCTAATCTTTCTGTTCAAGCGCCATCTAC”, with 1.05; and “GATGATTGTTCTCCCAGCTGATGAATTTTACTACTCGAGTAAACAAATTTTCCTAATCTTTCTGTTCAAGCGCCATCTAC”, with 0.31.
With “GATGATTGTTCTCCCAGCTGATGAATTAGTAGTTTCGAGTAAACAAATTTTCCTAATCTTTCTGTTCAAGCGCCATCTAC”, the binding signal (RPM ratio (pull-down/input)) was determined as 1.93.
With “GATGATTGTTCTCCCAGCTGATGAATTCAGCGTGTCGAGTAAACAAATTTTCCTAATCTTTCTGTTCAAGCGCCATCTAC”, the binding signal (RPM ratio (pull-down/input)) was 3.29.
Then “GATGATTGTTCTCCCAGCTGATGAATTCGCAGGATCGAGTAAACAAATTTTCCTAATCTTTCTGTTCAAGCGCCATCTAC”, with 0.268.
The figure for “GATGATTGTTCTCCCAGCTGATGAATTCTAACGTTCGAGTAAACAAATTTTCCTAATCTTTCTGTTCAAGCGCCATCTAC” is 0.467; for “GATGATTGTTCTCCCAGCTGATGAATTCAACGTATCGAGTAAACAAATTTTCCTAATCTTTCTGTTCAAGCGCCATCTAC” it is 0.526; for “GATGATTGTTCTCCCAGCTGATGAATTACTATTCTCGAGTAAACAAATTTTCCTAATCTTTCTGTTCAAGCGCCATCTAC” it is 0.559.
Then “GATGATTGTTCTCCCAGCTGATGAATTTTGCAAGTCGAGTAAACAAATTTTCCTAATCTTTCTGTTCAAGCGCCATCTAC”, with 3.41.
With “GATGATTGTTCTCCCAGCTGATGAATTTATGCTTTCGAGTAAACAAATTTTCCTAATCTTTCTGTTCAAGCGCCATCTAC”, the binding signal (RPM ratio (pull-down/input)) was 1.91.
As for “GATGATTGTTCTCCCAGCTGATGAATTTCGCTCATCGAGTAAACAAATTTTCCTAATCTTTCTGTTCAAGCGCCATCTAC”, the binding signal (RPM ratio (pull-down/input)) turned out to be 0.54.
The figure for “GATGATTGTTCTCCCAGCTGATGAATTTTAATTCTCGAGTAAACAAATTTTCCTAATCTTTCTGTTCAAGCGCCATCTAC” is 0.593.
Regarding “GATGATTGTTCTCCCAGCTGATGAATTTAGTACATCGAGTAAACAAATTTTCCTAATCTTTCTGTTCAAGCGCCATCTAC”, the binding signal (RPM ratio (pull-down/input)) was determined as 0.776.
With “GATGATTGTTCTCCCAGCTGATGAATTCACCGCCTCGAGTAAACAAATTTTCCTAATCTTTCTGTTCAAGCGCCATCTAC”, the binding signal (RPM ratio (pull-down/input)) was determined as 0.515.
The figure for “GATGATTGTTCTCCCAGCTGATGAATTCCTAGCTTCGAGTAAACAAATTTTCCTAATCTTTCTGTTCAAGCGCCATCTAC” is 0.265; for “GATGATTGTTCTCCCAGCTGATGAATTAGAGTCCTCGAGTAAACAAATTTTCCTAATCTTTCTGTTCAAGCGCCATCTAC” it is 0.493.
Then “GATGATTGTTCTCCCAGCTGATGAATTCCGGCGCTCGAGTAAACAAATTTTCCTAATCTTTCTGTTCAAGCGCCATCTAC”, with 0.332; and “GATGATTGTTCTCCCAGCTGATGAATTCTCAAACTCGAGTAAACAAATTTTCCTAATCTTTCTGTTCAAGCGCCATCTAC”, with 0.238; and “GATGATTGTTCTCCCAGCTGATGAATTGACTCCGTCGAGTAAACAAATTTTCCTAATCTTTCTGTTCAAGCGCCATCTAC”, with 0.306.
Regarding “GATGATTGTTCTCCCAGCTGATGAATTTGTTCTCTCGAGTAAACAAATTTTCCTAATCTTTCTGTTCAAGCGCCATCTAC”, the binding signal (RPM ratio (pull-down/input)) turned out to be 2.14.
Then “GATGATTGTTCTCCCAGCTGATGAATTAGGTCGATCGAGTAAACAAATTTTCCTAATCTTTCTGTTCAAGCGCCATCTAC”, with 0.303; and “GATGATTGTTCTCCCAGCTGATGAATTCGTGCATTCGAGTAAACAAATTTTCCTAATCTTTCTGTTCAAGCGCCATCTAC”, with 6.29; and “GATGATTGTTCTCCCAGCTGATGAATTCGTCAGATCGAGTAAACAAATTTTCCTAATCTTTCTGTTCAAGCGCCATCTAC”, with 0.227.
The figure for “GATGATTGTTCTCCCAGCTGATGAATTCTCTATCTCGAGTAAACAAATTTTCCTAATCTTTCTGTTCAAGCGCCATCTAC” is 0.282; for “GATGATTGTTCTCCCAGCTGATGAATTGCTAACGTCGAGTAAACAAATTTTCCTAATCTTTCTGTTCAAGCGCCATCTAC” it is 0.632; for “GATGATTGTTCTCCCAGCTGATGAATTTAGCCGTTCGAGTAAACAAATTTTCCTAATCTTTCTGTTCAAGCGCCATCTAC” it is 1.08.
The figure for “GATGATTGTTCTCCCAGCTGATGAATTTGCATATTCGAGTAAACAAATTTTCCTAATCTTTCTGTTCAAGCGCCATCTAC” is 2.72; for “GATGATTGTTCTCCCAGCTGATGAATTGTCTGGTTCGAGTAAACAAATTTTCCTAATCTTTCTGTTCAAGCGCCATCTAC” it is 0.341; for “GATGATTGTTCTCCCAGCTGATGAATTACAGTTATCGAGTAAACAAATTTTCCTAATCTTTCTGTTCAAGCGCCATCTAC” it is 0.992.
Regarding “GATGATTGTTCTCCCAGCTGATGAATTTCCACGATCGAGTAAACAAATTTTCCTAATCTTTCTGTTCAAGCGCCATCTAC”, the binding signal (RPM ratio (pull-down/input)) stood at 0.211.
Then “GATGATTGTTCTCCCAGCTGATGAATTAACTGACTCGAGTAAACAAATTTTCCTAATCTTTCTGTTCAAGCGCCATCTAC”, with 0.33.
With “GATGATTGTTCTCCCAGCTGATGAATTGCCCAAGTCGAGTAAACAAATTTTCCTAATCTTTCTGTTCAAGCGCCATCTAC”, the binding signal (RPM ratio (pull-down/input)) was 0.333.
The figure for “GATGATTGTTCTCCCAGCTGATGAATTCCCGTTGTCGAGTAAACAAATTTTCCTAATCTTTCTGTTCAAGCGCCATCTAC” is 0.526; for “GATGATTGTTCTCCCAGCTGATGAATTCGAAACTTCGAGTAAACAAATTTTCCTAATCTTTCTGTTCAAGCGCCATCTAC” it is 0.319; for “GATGATTGTTCTCCCAGCTGATGAATTCTATCGATCGAGTAAACAAATTTTCCTAATCTTTCTGTTCAAGCGCCATCTAC” it is 0.418.
Then “GATGATTGTTCTCCCAGCTGATGAATTCCTATGATCGAGTAAACAAATTTTCCTAATCTTTCTGTTCAAGCGCCATCTAC”, with 0.311.
The figure for “GATGATTGTTCTCCCAGCTGATGAATTTAAGGAGTCGAGTAAACAAATTTTCCTAATCTTTCTGTTCAAGCGCCATCTAC” is 0.228.
For “GATGATTGTTCTCCCAGCTGATGAATTTTGTTCATCGAGTAAACAAATTTTCCTAATCTTTCTGTTCAAGCGCCATCTAC”, the binding signal (RPM ratio (pull-down/input)) came to 1.34.
As for “GATGATTGTTCTCCCAGCTGATGAATTGTATTAATCGAGTAAACAAATTTTCCTAATCTTTCTGTTCAAGCGCCATCTAC”, the binding signal (RPM ratio (pull-down/input)) was 1.04.
For “GATGATTGTTCTCCCAGCTGATGAATTGAAGCTCTCGAGTAAACAAATTTTCCTAATCTTTCTGTTCAAGCGCCATCTAC”, the binding signal (RPM ratio (pull-down/input)) was found to be 0.336.
Consider “GATGATTGTTCTCCCAGCTGATGAATTGTTTTGCTCGAGTAAACAAATTTTCCTAATCTTTCTGTTCAAGCGCCATCTAC”, for which the binding signal (RPM ratio (pull-down/input)) stood at 3.65.
Then “GATGATTGTTCTCCCAGCTGATGAATTCTGGCAGTCGAGTAAACAAATTTTCCTAATCTTTCTGTTCAAGCGCCATCTAC”, with 0.34.
For the sequence “GATGATTGTTCTCCCAGCTGATGAATTCCTACGTTCGAGTAAACAAATTTTCCTAATCTTTCTGTTCAAGCGCCATCTAC”, the binding signal (RPM ratio (pull-down/input)) came out at 0.294.
The figure for “GATGATTGTTCTCCCAGCTGATGAATTCACCGTATCGAGTAAACAAATTTTCCTAATCTTTCTGTTCAAGCGCCATCTAC” is 0.49.
On to “GATGATTGTTCTCCCAGCTGATGAATTTTGCACGTCGAGTAAACAAATTTTCCTAATCTTTCTGTTCAAGCGCCATCTAC”, for which the binding signal (RPM ratio (pull-down/input)) was 3.32.
Then “GATGATTGTTCTCCCAGCTGATGAATTTTTGTGCTCGAGTAAACAAATTTTCCTAATCTTTCTGTTCAAGCGCCATCTAC”, with 0.442; and “GATGATTGTTCTCCCAGCTGATGAATTCAGGACTTCGAGTAAACAAATTTTCCTAATCTTTCTGTTCAAGCGCCATCTAC”, with 0.328; and “GATGATTGTTCTCCCAGCTGATGAATTTGGAACGTCGAGTAAACAAATTTTCCTAATCTTTCTGTTCAAGCGCCATCTAC”, with 0.355.
On to “GATGATTGTTCTCCCAGCTGATGAATTAAAAATATCGAGTAAACAAATTTTCCTAATCTTTCTGTTCAAGCGCCATCTAC”, for which the binding signal (RPM ratio (pull-down/input)) is 0.441.
Then “GATGATTGTTCTCCCAGCTGATGAATTCCCTCCATCGAGTAAACAAATTTTCCTAATCTTTCTGTTCAAGCGCCATCTAC”, with 0.264; and “GATGATTGTTCTCCCAGCTGATGAATTCGTGGGCTCGAGTAAACAAATTTTCCTAATCTTTCTGTTCAAGCGCCATCTAC”, with 0.512.
Then “GATGATTGTTCTCCCAGCTGATGAATTTAGAGTATCGAGTAAACAAATTTTCCTAATCTTTCTGTTCAAGCGCCATCTAC”, with 0.816; and “GATGATTGTTCTCCCAGCTGATGAATTGATGCATTCGAGTAAACAAATTTTCCTAATCTTTCTGTTCAAGCGCCATCTAC”, with 6.87; and “GATGATTGTTCTCCCAGCTGATGAATTACCTTTGTCGAGTAAACAAATTTTCCTAATCTTTCTGTTCAAGCGCCATCTAC”, with 0.396.
“GATGATTGTTCTCCCAGCTGATGAATTTAACGGTTCGAGTAAACAAATTTTCCTAATCTTTCTGTTCAAGCGCCATCTAC”: the binding signal (RPM ratio (pull-down/input)) stood at 0.415.
For the sequence “GATGATTGTTCTCCCAGCTGATGAATTCCGTAAATCGAGTAAACAAATTTTCCTAATCTTTCTGTTCAAGCGCCATCTAC”, the binding signal (RPM ratio (pull-down/input)) was determined as 0.308.
The figure for “GATGATTGTTCTCCCAGCTGATGAATTAAGATTATCGAGTAAACAAATTTTCCTAATCTTTCTGTTCAAGCGCCATCTAC” is 0.835.
With “GATGATTGTTCTCCCAGCTGATGAATTGACTACTTCGAGTAAACAAATTTTCCTAATCTTTCTGTTCAAGCGCCATCTAC”, the binding signal (RPM ratio (pull-down/input)) stood at 0.404.
The figure for “GATGATTGTTCTCCCAGCTGATGAATTCAATATGTCGAGTAAACAAATTTTCCTAATCTTTCTGTTCAAGCGCCATCTAC” is 1.43.
Then “GATGATTGTTCTCCCAGCTGATGAATTTGCGTGATCGAGTAAACAAATTTTCCTAATCTTTCTGTTCAAGCGCCATCTAC”, with 2.35.
Then “GATGATTGTTCTCCCAGCTGATGAATTGCGCCTTTCGAGTAAACAAATTTTCCTAATCTTTCTGTTCAAGCGCCATCTAC”, with 6.82.
